Our source for the growth inhibition call values is the antibiotic and cytotoxicity screens of Wong et al. (2023).

SMILES strings stand for the structures. The list shows a part of the results.

In the assay the test system is S. aureus RN4220. Put plainly: growth inhibition call (relative growth <= 0.2). The following applies: 50 µM.
For `O=C(C[C@@H]1C[C@@H]2c3cc(NC(=O)Nc4ccccc4)ccc3O[C@@H]2[C@@H](CO)O1)NCCN1CCCCC1`, the growth inhibition call is “inactive”. As for `C[C@@H]1CCCCO[C@H](CN(C)C(=O)NC2CCCCC2)[C@@H](C)CN([C@H](C)CO)C(=O)c2cc(NC(=O)Nc3ccc(F)cc3)ccc2O1`, the entry is “inactive”.

Turning to `CN(C)CCCC[C@@H]1NC(=O)[C@@H]2C[C@H](C(=O)NCCCCCCNC(=O)CS)[C@H](c3ccc(O)cc3)N2C1=O`, the growth inhibition call was “inactive”. Regarding `COCC#Cc1cnc2c(c1)C(=O)N([C@H](C)CO)C[C@@H](C)[C@@H](CN(C)C(C)=O)O2`, the growth inhibition call is “inactive”.

Consider `Cc1ccc(S(=O)(=O)N(C)C[C@@H]2Oc3ccc(N(C)C)cc3CC(=O)N([C@@H](C)CO)C[C@@H]2C)cc1`, for which the growth inhibition call was “inactive”. As for `C[C@@H]1CN([C@H](C)CO)C(=O)Cc2cc(NS(=O)(=O)c3cccs3)ccc2O[C@@H]1CN(C)Cc1ccc(-c2ccccc2)cc1`, the entry is “inactive”; as for `C[C@@H]1CN([C@H](C)CO)C(=O)c2cc(NS(C)(=O)=O)ccc2O[C@@H](C)CCCCO[C@H]1CN(C)S(=O)(=O)c1cccs1`, “inactive”. Turning to `C[C@H](CO)N1C[C@H](C)[C@@H](CN(C)Cc2ccncc2)Oc2ccc(NS(=O)(=O)c3cn(C)cn3)cc2CC1=O`, the growth inhibition call is “inactive”.

As to `C[C@H](CO)N1C[C@H](C)[C@H](CN(C)Cc2ccc(C(=O)Nc3ccccc3N)cc2)Oc2ccc(NC(=O)Cn3cnnn3)cc2C1=O`, the growth inhibition call was “inactive”. Regarding `CC(C(=O)O)c1ccc2c(c1)CC(=O)c1ccccc1S2` (stereo not given), the growth inhibition call was “inactive”.
